From US20230242658A1 (published 2023)

Columns and labels:
[1] = target: T1, human 4-1BB on CHO-K1 cells (human, UniProt Q07011 24-255); assay: FACS, CHO-K1 cells expressing human 4-1BB
T1 construct: whole, on cells; also called CHO-K1/hu 4-1BB; CHO-K1/hu4-1BB

[2] = target: T2, cynomolgus monkey 4-1BB on CHO-K1 cells (cynomolgus monkey); assay: FACS, CHO-K1 cells expressing cynomolgus monkey 4-1BB
T2 construct: whole, on cells; also called CHO-K1/cyno 4-1BB; CHO-K1/cyno4-1BB

[3] = target: T3, histidine-labeled human 4-1BB protein (human, UniProt Q07011 24-186); assay: SPR Biacore, antibody on Protein A, antigen as analyte, 1:1 fit
T3 construct: also called Human 4-1BB protein antigen (histidine-labeled); human 4-1BB protein and his tag (Acrobiosystem, #41B-H5227); not shown: histidine tag

B1: PR000448 (antibody, human IgG4 S228P, kappa)
heavy: QVQLQQWGAGLLKPSETLSLTCAVYGGSFSGYYWSWIRQPPGKGLEWIGEIQHSGSTDSNPSLKGRVTFSVDTSKNQFSLKLNSVTAADTAVYYCARLTGPFDYWGQGTLVTVSSASTKGPSVFPLAPCSRSTSESTAALGCLVKDYFPEPVTVSWNSGALTSGVHTFPAVLQSSGLYSLSSVVTVPSSSLGTKTYTCNVDHKPSNTKVDKRV[in this place human IgG4 Fc with S228P (EU numbers)]
light: EIVMTQSPATLSVSPGERATLSCRASQSISSILAWYQQKPGQAPRLLIYGASTRATGIPARFSGSGSGTEFTLTISSLQSEDFAVYYCQQYYNWPLTFGGGTKVEIKRTVAAPSVFIFPPSDEQLKSGTASVVCLLNNFYPREAKVQWKVDNALQSGNSQESVTEQDSKDSTYSLSSTLTLSKADYEKHKVYACEVTHQGLSSPVTKSFNRGEC
notes: Variant of PR000197 (VH:N52Q; VL:F2I), human IgG4 S228P
- EC50 [1]: 0.947 nM
- EC50 [2]: 1.06 nM
- Kd [3]: 0.155 nM
- koff [3]: 0.00022 s⁻¹
- kon [3]: 1.42e+06 M⁻¹ s⁻¹
